According to the RNAGym collection of RNA variant scans (doi:10.7554/elife.90254):
The source gives no read counts; variants with many changes may rest on few reads.

B1: LINE1-full (parent)
chain: UACGUAGGUGGUUUUCCCCUGAUAGUGCUAAGGGGGCCUGGAAGUUUGGACUGGGCAGAGCUCAACACAGCGUGGCAAAGUGGCUGUGGCUAGACUGCCUCUCUGGAUUCCUCGUCACUCAGCAGGGCAUCUCUGAGAGAAAUGCC

Variants of: B1
Assay: self-cleavage, relative activity (ratio to wild type); higher = more cleavage; in vitro, sequencing; the parent is a self-cleaving ribozyme

Variant | self-cleavage
A57G A117G U143A | 0.77
U12G U47C U143A | 1.02
A31U U39C U108C U132C | 1.29
A22U G40U U87C A140U | 0.21
U46C U102A U115C G122A A142G | 1.84
A22G A43G U52A | 1.19
A57U A117G G144A | 0.27
A24G G34U G75A U112C A138G | 1.09
A64U A69U U87C | 0.04
A67U C103U U112C | 0.06
U14C A31U U115C A136U | 1.79
U14C A31U G48A U115C A117U A121U A138U | 1.95
U52A G53U A142G | 1.29
U12C A69U U85C G125A A140G | 0.35
A43U U47C A65G U73A U91C A140U | 0
U73C A129G U134A | 0.66
U96A G97U U102C A121G | 0
U9A U14C U119C | 0.89
U87A U91G U104A A107G | 0
U9C A64G A94U A136U | 0.4
U23C A67U U115C U119C U130A | 0.4
G25U G49C U62C | 0.07
G40A A79G A140G | 0.62
U62A A79G A138G | 0.07

Variant | self-cleavage
U112C A121G A136G | 1.7
A43G A65G A94G A124U A129U | 0
U45C A79G U102C | 1.84
A2G A59C A140G | 0.69
U20C U85C G114U | 0.18
U13C A43G A79G | 0.9
A2G A64U A124G U132C | 0.47
A43G U85C U100C U132A | 0
U13C G33A A57U U100C A136G | 0.5
U14C U26A U134A | 0.38
A24G U91C A142G | 1.41
U23C U46C G75A A121U U132C C145U | 0.84
A42G C99U A142C | 1.09
U14C A42G U115C A124U | 0
A22G U23C U45C U104A | 0
A67U U109C A129G | 0.21
U20A U112A A140G | 1.76
A50G U62A G88A U109C U130C | 0.07
U26C C99U U102C | 0.83
U13C U23C A78G | 1.17
U12G G32A A43G U100A | 1.09
U15C A64G C118A | 0.44
A22U A121G U132C | 1.31
U13A U39C G97A | 0.04

Variant | self-cleavage
U14C A22G U29C G58A U62A A124U | 0.08
U12G U39A U130C | 1.36
U5C U26G C38U A42G | 0
U104G U112C A140G | 0
A6G U47C U73C | 0.16
A57G U73C A136U A142G | 1.84
U13C U15C G25A G35C C56U U109C U132C U143A | 0.1
U14C U52A A124U | 0
G35A A64G U109A A121U U130A | 0.15
A67U U112C A124U | 0.13
A31C U46C U132C | 0.63
U20C U26A U81C A107G | 0.61
C17U U20C G33U G53A U132C U143A | 0.87
U1C A6G U20C G74A U85C | 0.52
A64G U102C U130C U134C | 0.8
U14C U39A U87C | 0.41
U13C U45C U87C | 0.2
A30G A50U A92U G114A | 0.68
U12G U39C A79G | 0
U9A C16A U119C | 0.95
U9C U14C U100C A129U | 0.54
A2U U23A A31G | 1.49
A65G U102C U134A | 0.11
U15C A79G A142G | 1.15

Variant | self-cleavage
U26A U87A A129U U130C | 0
U39A G55A G88A A136U | 0.01
A22G U108C A129U | 0.66
G7C U45C A141G | 1.74
A24U U112C A124C | 1.2
U26C G35A C146U | 1.12
A57C U73A A79U U102C U143C | 0.05
A2G U9C U45C A136C U143A | 0.61
U20C A57G A138G A141G | 1.34
U5A U13C C101U U119C A141G | 1.08
U20C A43C U52A C103U | 1.84
U12C U29C A31G A124G | 1.15
C19U U100A U115C A138G | 2.92
A57G G80U A107G | 0.63
U62C U109A A121U U134C | 0.02
G82A U91C A138G | 1.11
G32A A67U U102G C120U A124G A142G | 0
U12A A42U A43G | 1.07
U1C U12G A31G U85C U115C G135A | 0
A30U U45C U81C | 0
A43G U62A U100C U119A | 0
U15A C37U U62C | 0.05
U1C U13C C17U C76A G106A | 0
A6U U9C U13C A64G A117U | 0.8

Variant | self-cleavage
U5C A79U A138G | 0.28
A50U U85C U134C | 0.12
A136U A142G G144A | 1.64
A6U G10A G35C | 2.08
U14G A22G G125A | 0.75
U45C A77G A94G | 0
U1C U15C U130C U134A A138G | 1.21
U1C A50U A67U A136G | 0.06
U102C U108C A141G | 1.11
A22G C37U U73A | 0.98
A43G A79G C103U | 1.07
A79U U108A A138G | 1.5
A78G U96A U134C | 0.11
U20C A50G A57U A79G | 0.34
U12C U96A A117U A124U | 0.12
U13C U87A U96C A142G | 0
U47A A78G G88A | 0.09
C38U C99A G114A U132C | 0.82
C19A U20C A107G | 1.23
A94U C101U A140G | 0.15
U13C A43G U96A U119A | 0.19
G88A G122A U143C | 0.08
A30G C37U A77U G122A U134C | 1.09
U12G U15C U26A U62G | 0.55

Variant | self-cleavage
C28A C98A G127A | 0.1
A64G A69G A77U U81C | 0
U14C A65G A79G | 0
U12C U102A U104A | 1.82
G48A A107C U134C | 1.61
U9A U39C G40A A57C | 0
C19U U46C U62A U119G U130C | 0
U15C U62C U85A C113U U143C | 0.04
U26C G36C A92G A136G | 0.09
A22U A42G A94G C98A | 0.42
A92U U112C C145U | 0.49
U12C U13C U73A | 1.23
A24G G35A A42G A94G A107G | 0
U47G U85C G89A A124G | 0.16
U87C C95U U132A A136G | 0.07
G4A A65C U112C C113U U119A | 0.02
U5C A69G U132C | 0.36
A64G U96A U100C | 0
A31G U115A G122A | 1.21
C18A A140G A141G | 0.84
U1C U47A A50G A57G A129U G144A | 0.42
A57C A64G U112A G125A | 0.23
U12C C18A U20C U109C | 0.63
G35U G72A A129G A140G | 1.21

Variant | self-cleavage
U13C A24G U87A | 0.07
U13C G105U U143C | 1.48
G88A A94G U104C | 0.07
U9A U15A U39G G54U | 0.99
A31U U119C A136G | 2.11
G27A U39A U45C U115C | 1.19
G40A A59G U100A U112C | 0.08
U5C U26A U47C U73A | 0
A6G C113U A141G | 0.69
U1A U47G A64C U108C U143A | 0.32
G40A A129G A141G | 0.16
A6G U39C A124G | 1.15
U13A U15C A65G U104C A136U | 0
U39A A79U A142G | 1.76
A31U A57G A67U A77G | 0
U12C U104C U143C | 1.62
U12C U52A A107G | 0
A6G U12G U85C | 0
U9C A42G U46C C84G | 0.36
U39A A69G U100C A138G A141G | 1.15
A43G U52A G74A A79G C84A U85C | 0.13
U47A A57G C120U | 1.08
U29C A121G A140G | 0
